Experimental data taken from the supplement of paper PMC4604168 (melanoma cell lines).
The list shows a part of the results. Repeats are few or missing, and single values can be far off.

What was measured:
Test in all cases: cell count relative to DMSO control; melanoma cells; higher = more viable cells
Details in all cases: library dose: low library concentration; 72 h
MZ2-MEL = tested on: MZ2-MEL
MeWo = tested on: MeWo
RPMI7951 = tested on: RPMI7951
RVH-421 = tested on: RVH-421
SkMel28 = tested on: SkMel28
SkMel30 = tested on: SkMel30
SkMel5 = tested on: SkMel5
UACC257 = tested on: UACC257
UACC62 = tested on: UACC62
WM115 = tested on: WM115
WM1716 = tested on: WM1716
WM1745 = tested on: WM1745
WM3526 = tested on: WM3526
WM3619 = tested on: WM3619
WM451Lu = tested on: WM451Lu
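Note: cell number obtained by counting DAPI-stained nuclei in high-throughput microscope images with image analysis software, screen run in 1,536-well plates.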

SMILES | cell count (MZ2-MEL) [%] | cell count (MeWo) [%] | cell count (RPMI7951) [%] | cell count (RVH-421) [%] | cell count (SkMel28) [%] | cell count (SkMel30) [%] | cell count (SkMel5) [%] | cell count (UACC257) [%] | cell count (UACC62) [%] | cell count (WM115) [%] | cell count (WM1716) [%] | cell count (WM1745) [%] | cell count (WM3526) [%] | cell count (WM3619) [%] | cell count (WM451Lu) [%]
Cc1ccc(NC(=O)c2cccc(N(C)C)c2)cc1NC(=O)c1ccc(O)cc1 + c1cc(-c2cnn3cc(-c4ccc(OCCN5CCCCC5)cc4)cnc23)ccn1 [Dorsomorphin] (first compound 2 µM, partner dose 0.4 µM) | 74.6 | 94.4 | 82.6 | 90.6 | 91.9 | 119 | 83.7 | 89 | 88.6 | 97.8 | 98.2 | 83 | 114 | 83 | 101
Cc1ccc(NC(=O)c2cccc(N(C)C)c2)cc1NC(=O)c1ccc(O)cc1 + O=c1cc(-c2cccc3c2Sc2ccccc2S3)oc(N2CCOCC2)c1 [KU55933] (first compound 2 µM, partner dose 1 µM) | 72.8 | 105 | 76.5 | 101 | 82.1 | 101 | 99.3 | 127 | 113 | 110 | 124 | 94 | 91.2 | 98.3 | 106
CCc1ccc(CCOc2ccc(CC3SC(=O)NC3=O)cc2)nc1 (stereo not given) [pioglitazone] + O=S(=O)(c1ccccc1)N(CC(F)(F)F)c1ccc(C(O)(C(F)(F)F)C(F)(F)F)cc1 [T0901317] (first compound 2 µM, partner dose 1.4 µM) | 102 | 98.4 | 95.2 | 148 | 73.1 | 93.1 | 84.5 | 74.5 | 76 | 92.4 | 79 | 81.5 | 86.3 | 109 | 85.3
CCc1ccc(CCOc2ccc(CC3SC(=O)NC3=O)cc2)nc1 (stereo not given) [pioglitazone] + COc1cc(N2CCC(N3CCN(C)CC3)CC2)ccc1Nc1ncc(Cl)c(Nc2ccccc2S(=O)(=O)C(C)C)n1 [NVP-TAE684] (first compound 2 µM, partner dose 0.08 µM) | 106 | 77.5 | 110 | 98.4 | 67.1 | 110 | 80.1 | 88.7 | 92 | 90.4 | 87.2 | 76.6 | 132 | 102 | 95
CCc1ccc(CCOc2ccc(CC3SC(=O)NC3=O)cc2)nc1 (stereo not given) [pioglitazone] + N#Cc1c(O)c2c(-c3ccc(-c4ccccc4O)cc3)csc2[nH]c1=O [A769662] (first compound 2 µM, partner dose 2 µM) | 109 | 97.2 | 97.3 | 112 | 95.5 | 119 | 110 | 107 | 115 | 97.6 | 111 | 92.2 | 108 | 90 | 93.9
Cc1ccc(NC(=O)c2cccc(N(C)C)c2)cc1NC(=O)c1ccc(O)cc1 + O=C(O)C(=O)Nc1sc2c(c1C(=O)O)CCNC2 [TCS401] (first compound 2 µM, partner dose 1.66667 µM) | 79 | 92.9 | 89.6 | 93.6 | 86.5 | 85.9 | 91.1 | 81.9 | 93.4 | 97.8 | 110 | 81.8 | 82.4 | 114 | 90.8
CN(NC(=O)CC(=O)NN(C)C(=S)c1ccccc1)C(=S)c1ccccc1 + Oc1cc(-c2nc(-c3ccccc3)[nH]c2-c2ccncc2)ccc1Cl [L779450] (first compound 0.006 µM, partner dose 0.2 µM) | 83.2 | 77.8 | 113 | 79.3 | 90.8 | 82.6 | 93.3 | 83.9 | 67.2 | 78.5 | 83.8 | 37.6 | 84.3 | 70.9 | 117
Cc1ccc(NC(=O)c2cccc(N(C)C)c2)cc1NC(=O)c1ccc(O)cc1 + COc1cc2ncnc(Nc3ccc(Oc4ccccc4)cc3)c2cc1OC [SrcI1] (first compound 2 µM, partner dose 2 µM) | 75.3 | 93.3 | 99.7 | 105 | 81.7 | 89.3 | 109 | 102 | 92.6 | 103 | 115 | 86.6 | 87.6 | 110 | 104
Cc1ccc(NC(=O)c2cccc(N(C)C)c2)cc1NC(=O)c1ccc(O)cc1 + COc1ccc(COc2ccc(Cc3cnc(N)nc3N)cc2OC)cc1 [GW2580] (first compound 2 µM, partner dose 1 µM) | 74.4 | 104 | 96.6 | 88.2 | 88.8 | 92.3 | 82.1 | 95.5 | 93.6 | 91 | 100 | 84 | 98.1 | 126 | 96.2
Cc1ccc(NC(=O)c2cccc(N(C)C)c2)cc1NC(=O)c1ccc(O)cc1 + Cc1cc([N+](=O)[O-])ccc1NS(=O)(=O)c1cc(Cl)ccc1Cl [FH535] (first compound 2 µM, partner dose 1 µM) | 81 | 93.7 | 106 | 85.2 | 82.9 | 89.5 | 76.6 | 94.5 | 85.3 | 79.3 | 118 | 112 | 95.8 | 91.2 | 105
CN(NC(=O)CC(=O)NN(C)C(=S)c1ccccc1)C(=S)c1ccccc1 + COc1cc(N2CCC(N3CCN(C)CC3)CC2)ccc1Nc1ncc(Cl)c(Nc2ccccc2S(=O)(=O)C(C)C)n1 [NVP-TAE684] (first compound 0.006 µM, partner dose 0.08 µM) | 104 | 65.8 | 102 | 79.1 | 68.9 | 77.9 | 80.8 | 64.6 | 90.8 | 78.2 | 77.1 | 50.7 | 101 | 67.3 | 113
COc1cc2c(Oc3ccc4[nH]c(C)cc4c3F)ncnc2cc1OCCCN1CCCC1 [cediranib] + O=C(Nc1ccccc1)c1cc([N+](=O)[O-])ccc1Cl [GW9662] (first compound 0.4 µM, partner dose 2 µM) | 101 | 90.8 | 98.4 | 94.9 | 87.7 | 93.7 | 104 | 103 | 87.9 | 113 | 96.9 | 89.9 | 95.3 | 143 | 110
CC(C)(C)c1cnc(CSc2cnc(NC(=O)C3CCNCC3)s2)o1 + CC(C)CCN1c2nc(Nc3cc(F)c(O)c(F)c3)ncc2N(C)C(=O)C1C [BID1870] (first compound 0.01 µM, partner dose 0.2 µM) | 105 | 89.8 | 90.5 | 93.4 | 79.7 | 66.4 | 84.6 | 75.1 | 82.7 | 96.5 | 85.1 | 89.1 | 85.2 | 91.9 | 97.8
CCc1ccc(CCOc2ccc(CC3SC(=O)NC3=O)cc2)nc1 (stereo not given) [pioglitazone] + O=C1NC(=O)/C(=C/c2ccc(-c3ccc(F)cc3O)o2)S1 [AS252424] (first compound 2 µM, partner dose 1 µM) | 92.7 | 103 | 95.4 | 91.3 | 96.2 | 116 | 94.8 | 86.2 | 94.3 | 89.6 | 92.6 | 86.3 | 71.9 | 100 | 114
Cc1ccc(NC(=O)c2cccc(N(C)C)c2)cc1NC(=O)c1ccc(O)cc1 + O=S(=O)(c1ccccc1)N(CC(F)(F)F)c1ccc(C(O)(C(F)(F)F)C(F)(F)F)cc1 [T0901317] (first compound 2 µM, partner dose 1.4 µM) | 72.4 | 97.7 | 88.4 | 85.1 | 91 | 84.2 | 90.9 | 99.9 | 92.1 | 97.2 | 99.7 | 76 | 89.1 | 93.5 | 120
COc1cc2c(Oc3ccc4[nH]c(C)cc4c3F)ncnc2cc1OCCCN1CCCC1 [cediranib] + COc1ccc2c(c1)CCC1C2CCC2(C)C(NCCCCCCN3C(=O)C=CC3=O)CCC12 [U73122] (first compound 0.4 µM, partner dose 0.4 µM) | 100 | 119 | 74.7 | 98 | 90.8 | 105 | 107 | 106 | 88.3 | 86.6 | 82.2 | 98.4 | 109 | 94.4 | 107
CN(NC(=O)CC(=O)NN(C)C(=S)c1ccccc1)C(=S)c1ccccc1 + CCN(CC)CCCCNc1ncc2cc(-c3cc(OC)cc(OC)c3)c(NC(=O)NC(C)(C)C)nc2n1 [PD173074] (first compound 0.006 µM, partner dose 0.1 µM) | 99.9 | 79.4 | 107 | 129 | 94.1 | 82 | 94.9 | 77.6 | 84.3 | 80.6 | 87.7 | 33.4 | 92.8 | 32 | 110
CN(NC(=O)CC(=O)NN(C)C(=S)c1ccccc1)C(=S)c1ccccc1 + COc1ccc2c(c1)CCC1C2CCC2(C)C(NCCCCCCN3C(=O)C=CC3=O)CCC12 [U73122] (first compound 0.006 µM, partner dose 0.4 µM) | 94.1 | 120 | 80.4 | 82.1 | 87.3 | 71 | 107 | 81.4 | 123 | 99.8 | 82 | 111 | 100 | 116 | 114
CCc1ccc(CCOc2ccc(CC3SC(=O)NC3=O)cc2)nc1 (stereo not given) [pioglitazone] + Oc1cc(-c2nc(-c3ccccc3)[nH]c2-c2ccncc2)ccc1Cl [L779450] (first compound 2 µM, partner dose 0.2 µM) | 84.5 | 95.7 | 102 | 80 | 79.7 | 76.9 | 102 | 74.5 | 62.5 | 91.4 | 115 | 84.5 | 83 | 114 | 105
Cc1ccc(NC(=O)c2cccc(N(C)C)c2)cc1NC(=O)c1ccc(O)cc1 + N#Cc1c(O)c2c(-c3ccc(-c4ccccc4O)cc3)csc2[nH]c1=O [A769662] (first compound 2 µM, partner dose 2 µM) | 74.1 | 87.6 | 86.6 | 103 | 89.8 | 80.7 | 89.4 | 110 | 91.9 | 104 | 105 | 93.1 | 77 | 98 | 105
